Assay results taken from publication PMC9911399, “Two distinct binding modes provide the RNA-binding protein RbFox with extraordinary sequence specificity”.
Positions count from the first letter of the chain named. The list shows a part of the results.

T1: RBFOX1 RRM (Homo sapiens, UniProt Q9NWB1 109-208)
T1 sequence: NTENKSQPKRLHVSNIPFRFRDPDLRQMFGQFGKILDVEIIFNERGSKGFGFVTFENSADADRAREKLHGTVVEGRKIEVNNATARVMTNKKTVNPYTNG

B1: UGCGCUU (DNA:RNA)
RNA: GGGAGACCGGAAUUCAGAUUGUCCUGCGCUUUUAAAUCCCGUCGUAGCCACCA
DNA 1: CAATCTGAATTCCGGTCTCCC
DNA 2: TGGTGGCTACGACGGGATT
B2: UGUCUUG (DNA:RNA)
RNA: B1 RNA with C27U, G28C, C29U, U31G
DNA 1: CAATCTGAATTCCGGTCTCCC
DNA 2: TGGTGGCTACGACGGGATT
B3: AAGCCGA (DNA:RNA)
RNA: B1 RNA with U25A, G26A, C27G, G28C, U30G, U31A
DNA 1: CAATCTGAATTCCGGTCTCCC
DNA 2: TGGTGGCTACGACGGGATT
B4: CAACUUG (DNA:RNA)
RNA: B1 RNA with U25C, G26A, C27A, G28C, C29U, U31G
DNA 1: CAATCTGAATTCCGGTCTCCC
DNA 2: TGGTGGCTACGACGGGATT
B5: GGUCAAG (DNA:RNA)
RNA: B1 RNA with U25G, C27U, G28C, C29A, U30A, U31G
DNA 1: CAATCTGAATTCCGGTCTCCC
DNA 2: TGGTGGCTACGACGGGATT
B6: AGCAUGC (DNA:RNA)
RNA: B1 RNA with U25A, G28A, C29U, U30G, U31C
DNA 1: CAATCTGAATTCCGGTCTCCC
DNA 2: TGGTGGCTACGACGGGATT
B7: CCUAGAG (DNA:RNA)
RNA: GGGAGACCGGAAUUCAGAUUGUCCCCUAGAGUUAAAUCCCGUCGUAGCCACCA
DNA 1: CAATCTGAATTCCGGTCTCCC
DNA 2: TGGTGGCTACGACGGGATT
B8: GUAGAUC (DNA:RNA)
RNA: B1 RNA with U25G, G26U, C27A, C29A, U31C
DNA 1: CAATCTGAATTCCGGTCTCCC
DNA 2: TGGTGGCTACGACGGGATT
B9: AGUUAUG (DNA:RNA)
RNA: B7 RNA with C25A, C26G, A28U, G29A, A30U
DNA 1: CAATCTGAATTCCGGTCTCCC
DNA 2: TGGTGGCTACGACGGGATT
B10: GACGCUA (DNA:RNA)
RNA: B1 RNA with U25G, G26A, U31A
DNA 1: CAATCTGAATTCCGGTCTCCC
DNA 2: TGGTGGCTACGACGGGATT
B11: AUGUGUU (DNA:RNA)
RNA: B1 RNA with U25A, G26U, C27G, G28U, C29G
DNA 1: CAATCTGAATTCCGGTCTCCC
DNA 2: TGGTGGCTACGACGGGATT
B12: CUUUGUA (DNA:RNA)
RNA: B7 RNA with C26U, A28U, A30U, G31A
DNA 1: CAATCTGAATTCCGGTCTCCC
DNA 2: TGGTGGCTACGACGGGATT
B13: AAACUGC (DNA:RNA)
RNA: GGGAGACCGGAAUUCAGAUUGUCCAAACUGCUUAAAUCCCGUCGUAGCCACCA
DNA 1: CAATCTGAATTCCGGTCTCCC
DNA 2: TGGTGGCTACGACGGGATT
B14: AUUACUA (DNA:RNA)
RNA: B7 RNA with C25A, C26U, G29C, A30U, G31A
DNA 1: CAATCTGAATTCCGGTCTCCC
DNA 2: TGGTGGCTACGACGGGATT
B15: GCCCCAC (DNA:RNA)
RNA: B13 RNA with A25G, A26C, A27C, U29C, G30A
DNA 1: CAATCTGAATTCCGGTCTCCC
DNA 2: TGGTGGCTACGACGGGATT
B16: CUGAUAG (DNA:RNA)
RNA: B7 RNA with C26U, U27G, G29U
DNA 1: CAATCTGAATTCCGGTCTCCC
DNA 2: TGGTGGCTACGACGGGATT
B17: UCCCAGC (DNA:RNA)
RNA: B13 RNA with A25U, A26C, A27C, U29A
DNA 1: CAATCTGAATTCCGGTCTCCC
DNA 2: TGGTGGCTACGACGGGATT
B18: AGCCCCC (DNA:RNA)
RNA: B13 RNA with A26G, A27C, U29C, G30C
DNA 1: CAATCTGAATTCCGGTCTCCC
DNA 2: TGGTGGCTACGACGGGATT
B19: CGGUGCA (DNA:RNA)
RNA: B7 RNA with C26G, U27G, A28U, A30C, G31A
DNA 1: CAATCTGAATTCCGGTCTCCC
DNA 2: TGGTGGCTACGACGGGATT
B20: CUGAGGG (DNA:RNA)
RNA: B7 RNA with C26U, U27G, A30G
DNA 1: CAATCTGAATTCCGGTCTCCC
DNA 2: TGGTGGCTACGACGGGATT

Each binder was assayed against T1, RBFOX1 RRM (assay: EMSA; HiTS-Eq, 1 nM pool, 10 min; buffer printed only for the single-RNA assays: 10 mM Tris pH 7.5, 150 mM NaCl, 3.4 mM EDTA, 0.001% NP-40, 30 C). Conditions: tags: His6 N-terminal (pET28a); label: 5' 32P.
Summary of the method: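 Purified RbFox RRM, wild type or mutant, was incubated for 10 min in 50 µL with 1 nM of a 5′-radiolabelled RNA pool carrying 7 randomized nucleotides, whose flanks were annealed to DNA oligonucleotides, over a series of increasing protein concentrations. Unbound RNA was resolved on 8% native PAGE, cut out, reverse-transcribed, barcoded by PCR and sequenced on an Illumina HiSeq 2500. Relative association constants were derived from changes in read counts for each RNA species versus the control reaction and normalised to the cognate motif.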
In the case of B1, the binding signal is reported as 0.0163 KA relative to UGCAUGU.
In the case of B2, the binding signal is reported as 0.0447 KA relative to UGCAUGU.
In the case of B3, the binding signal is reported as 0.00329 KA relative to UGCAUGU.
For B4, the binding signal was 0.00743 KA relative to UGCAUGU.
In the case of B5, the binding signal is reported as 0.00421 KA relative to UGCAUGU.
B6 was tested, and the binding signal was 0.888 KA relative to UGCAUGU.
For B7, the binding signal was 0.00564 KA relative to UGCAUGU.
In the case of B8, the binding signal is reported as 0.012 KA relative to UGCAUGU.
B9 was tested, and the binding signal was 0.0145 KA relative to UGCAUGU.
For B10, the binding signal was 0.0104 KA relative to UGCAUGU.
With B11 the binding signal was 0.0112 KA relative to UGCAUGU.
In the case of B12, the binding signal is reported as 0.00681 KA relative to UGCAUGU.
B13 was tested, and the binding signal was 0.00534 KA relative to UGCAUGU.
In the case of B14, the binding signal is reported as 0.00403 KA relative to UGCAUGU.
B15 was tested, and the binding signal was 0.00195 KA relative to UGCAUGU.
With B16 the binding signal was 0.0183 KA relative to UGCAUGU.
For B17, the binding signal was 0.00189 KA relative to UGCAUGU.
In the case of B18, the binding signal is reported as 0.00607 KA relative to UGCAUGU.
B19 was tested, and the binding signal was 0.0194 KA relative to UGCAUGU.
With B20 the binding signal was 0.00644 KA relative to UGCAUGU.
